# Source: the supplement of paper PMC10037445
# In all, about 2,900 compounds were measured (“IRF Lucia reporter activity, fold change vs agonist alone”: median about 0.9, highest 2% from about 2.8 on). This is one part of the list.
# Key:
# RAW-Dual [1] = assay: IRF Lucia reporter activity, fold change vs agonist alone; cytotoxicity flag (confluency mask): not cytotoxic; higher = enhanced IRF activity
# Summary of the method: (§1)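 Cytotoxic wells were those whose IncuCyte confluency was below 70% of agonist controls in both mask sets. The cells were RAW-Dual macrophages at 50,000 cells/well in DMEM on 384-well plates, dosed with 50 nL of library stock by pin tool, stimulated with a PRR agonist 1 h later, and kept at 37 °C, 5% CO2 for 20 hours. IRF and NF-κB reporter activity, as fold change over agonist-alone wells, came from supernatant read by QuantiLuc luminescence and QuantiBlue absorbance, respectively.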
# RAW-Dual [2] = assay: IRF Lucia reporter activity, fold change vs agonist alone; higher = enhanced IRF activity; conditions: agonist: MPLA (TLR4) […]
# Summary of the method: as §1
# RAW-Dual [3] = assay: IRF Lucia reporter activity, fold change vs agonist alone; cytotoxicity flag (confluency mask): cytotoxic (confluency <70% of control); higher = enhanced IRF activity
# Summary of the method: as §1
# [4] = agonist: 3'3'-cGAMP (STING) 10 ug/mL
# [5] = library stock concentration (final ~1000-fold dilution): 10 mM, cytotoxicity flag (confluency mask): not cytotoxic
# [6] = library stock concentration (final ~1000-fold dilution): 10 mM water, cytotoxicity flag (confluency mask): not cytotoxic
smiles,measurement,setting,value
CC(C)NCC(O)COc1cccc2[nH]ccc12 (centres undefined) (library stock concentration (final ~1000-fold dilution): 10 mM),IRF Lucia reporter activity,RAW-Dual [1]; [4],1.09
same,IRF Lucia reporter activity,RAW-Dual [1]; agonist: LPS (TLR4) 0.1 ug/mL,1.35
CC(C)NCC(O)COc1cccc2[nH]ccc12 (centres undefined),IRF Lucia reporter activity,RAW-Dual [2]; [5],1.18
COc1cccc(C(N)=O)c1 (library stock concentration (final ~1000-fold dilution): 10 mM),IRF Lucia reporter activity,RAW-Dual [1]; [4],1.02
same,IRF Lucia reporter activity,RAW-Dual [1]; agonist: LPS (TLR4) 0.1 ug/mL,1.22
COc1cccc(C(N)=O)c1,IRF Lucia reporter activity,RAW-Dual [2]; [5],1.02
Nc1ccn(CC(CO)OCP(=O)(O)O)c(=O)n1 (centres undefined),IRF Lucia reporter activity,RAW-Dual [2]; [6],1.26
Nc1ccn(CC(CO)OCP(=O)(O)O)c(=O)n1 (centres undefined) (library stock concentration (final ~1000-fold dilution): 10 mM water),IRF Lucia reporter activity,RAW-Dual [1]; [4],0.847
same,IRF Lucia reporter activity,RAW-Dual [1]; agonist: LPS (TLR4) 0.1 ug/mL,0.826
CC1COC2=C1C(=O)C(=O)c1c2ccc2c1CCCC2(C)C (centres undefined),IRF Lucia reporter activity,RAW-Dual [2]; [5],0.44
CC1COC2=C1C(=O)C(=O)c1c2ccc2c1CCCC2(C)C (centres undefined) (library stock concentration (final ~1000-fold dilution): 10 mM),IRF Lucia reporter activity,RAW-Dual [1]; [4],0.339
same,IRF Lucia reporter activity,RAW-Dual [1]; agonist: LPS (TLR4) 0.1 ug/mL,0.395
CC/C(=C(\c1ccc(O)cc1)c1ccc(OCCNC)cc1)c1ccccc1.Cl (library stock concentration (final ~1000-fold dilution): 10 mM),IRF Lucia reporter activity,RAW-Dual [3]; [4],0.216
same,IRF Lucia reporter activity,RAW-Dual [3]; agonist: LPS (TLR4) 0.1 ug/mL,0.154
COc1cc(F)c(C(C)C)cc1-c1ccc(C(F)(F)F)cc1CN1C(=O)OC(c2cc(C(F)(F)F)cc(C(F)(F)F)c2)C1C (centres undefined) (library stock concentration (final ~1000-fold dilution): 10 mM),IRF Lucia reporter activity,RAW-Dual [1]; [4],1.12
same,IRF Lucia reporter activity,RAW-Dual [1]; agonist: LPS (TLR4) 0.1 ug/mL,1.14
COc1cc(F)c(C(C)C)cc1-c1ccc(C(F)(F)F)cc1CN1C(=O)OC(c2cc(C(F)(F)F)cc(C(F)(F)F)c2)C1C (centres undefined),IRF Lucia reporter activity,RAW-Dual [2]; [5],1.1
N=C(N)NCCCCC(N)C(=O)O (centres undefined),IRF Lucia reporter activity,RAW-Dual [2]; [6],1.25
N=C(N)NCCCCC(N)C(=O)O (centres undefined) (library stock concentration (final ~1000-fold dilution): 10 mM water),IRF Lucia reporter activity,RAW-Dual [1]; [4],1.14
same,IRF Lucia reporter activity,RAW-Dual [1]; agonist: LPS (TLR4) 0.1 ug/mL,0.88
CC(C)C(=O)c1c(C(C)C)nn2ccccc12 (library stock concentration (final ~1000-fold dilution): 10 mM),IRF Lucia reporter activity,RAW-Dual [1]; [4],0.861
same,IRF Lucia reporter activity,RAW-Dual [1]; agonist: LPS (TLR4) 0.1 ug/mL,1.03
CC(C)C(=O)c1c(C(C)C)nn2ccccc12,IRF Lucia reporter activity,RAW-Dual [2]; [5],1.04
Nc1nc(N)c2nc(-c3ccccc3)c(N)nc2n1,IRF Lucia reporter activity,RAW-Dual [2]; [5],1.06
Nc1nc(N)c2nc(-c3ccccc3)c(N)nc2n1 (library stock concentration (final ~1000-fold dilution): 10 mM),IRF Lucia reporter activity,RAW-Dual [1]; [4],0.772
same,IRF Lucia reporter activity,RAW-Dual [1]; agonist: LPS (TLR4) 0.1 ug/mL,1.19
CCO.N#CC(=C(\N)Sc1ccccc1N)/C(C#N)=C(/N)Sc1ccccc1N (library stock concentration (final ~1000-fold dilution): 10 mM),IRF Lucia reporter activity,RAW-Dual [1]; [4],0.574
same,IRF Lucia reporter activity,RAW-Dual [1]; agonist: LPS (TLR4) 0.1 ug/mL,2.43
CCO.N#CC(=C(\N)Sc1ccccc1N)/C(C#N)=C(/N)Sc1ccccc1N,IRF Lucia reporter activity,RAW-Dual [2]; [5],2.65
Brc1ccc2[nH]ccc2c1,IRF Lucia reporter activity,RAW-Dual [2]; [5],1.34
Brc1ccc2[nH]ccc2c1 (library stock concentration (final ~1000-fold dilution): 10 mM),IRF Lucia reporter activity,RAW-Dual [1]; [4],0.947
same,IRF Lucia reporter activity,RAW-Dual [1]; agonist: LPS (TLR4) 0.1 ug/mL,1.72
COc1ccc(CCC(=O)c2c(O)cc(O[C@@H]3O[C@H](CO)[C@@H](O)[C@H](O)[C@H]3O[C@@H]3O[C@@H](C)[C@H](O)[C@@H](O)[C@H]3O)cc2O)cc1O (library stock concentration (final ~1000-fold dilution): 10 mM),IRF Lucia reporter activity,RAW-Dual [1]; [4],0.994
same,IRF Lucia reporter activity,RAW-Dual [1]; agonist: LPS (TLR4) 0.1 ug/mL,1.08
CC(C)(C)CC(C)(C)c1ccc(OCCOCC[N+](C)(C)Cc2ccccc2)cc1,IRF Lucia reporter activity,"RAW-Dual [2]; library stock concentration (final ~1000-fold dilution): 10 mM, cytotoxicity flag (confluency mask): cytotoxic (confluency <70% of control)",1.66
CC(C)(C)CC(C)(C)c1ccc(OCCOCC[N+](C)(C)Cc2ccccc2)cc1 (library stock concentration (final ~1000-fold dilution): 10 mM),IRF Lucia reporter activity,RAW-Dual [3]; [4],0.298
same,IRF Lucia reporter activity,RAW-Dual [3]; agonist: LPS (TLR4) 0.1 ug/mL,1.17
O=C(O)c1cc(I)ccc1NC(=O)C(Cc1ccccc1)NCc1ccccc1 (centres undefined),IRF Lucia reporter activity,RAW-Dual [2]; [5],1.05
O=C(O)c1cc(I)ccc1NC(=O)C(Cc1ccccc1)NCc1ccccc1 (centres undefined) (library stock concentration (final ~1000-fold dilution): 10 mM),IRF Lucia reporter activity,RAW-Dual [1]; [4],1.17
same,IRF Lucia reporter activity,RAW-Dual [1]; agonist: LPS (TLR4) 0.1 ug/mL,1.41
CC(C(=O)Nc1cccc(N=Cc2c(O)ccc3ccccc23)c1)c1ccccc1 (centres undefined) (library stock concentration (final ~1000-fold dilution): 10 mM),IRF Lucia reporter activity,RAW-Dual [1]; [4],0.0926
same,IRF Lucia reporter activity,RAW-Dual [1]; agonist: LPS (TLR4) 0.1 ug/mL,1.6
Cc1cc2c(C(=O)NCC(C)c3ccccc3)c(O)c(O)cc2c(O)c1-c1c(C)cc2c(C(=O)NCC(C)c3ccccc3)c(O)c(O)cc2c1O (centres undefined) (library stock concentration (final ~1000-fold dilution): 10 mM),IRF Lucia reporter activity,RAW-Dual [1]; [4],0.11
same,IRF Lucia reporter activity,RAW-Dual [1]; agonist: LPS (TLR4) 0.1 ug/mL,0.993
